In assay [1] the target is T1, GST-Nv-NF-kB (Cys allele) (UniProt E5G601).
T1 sequence: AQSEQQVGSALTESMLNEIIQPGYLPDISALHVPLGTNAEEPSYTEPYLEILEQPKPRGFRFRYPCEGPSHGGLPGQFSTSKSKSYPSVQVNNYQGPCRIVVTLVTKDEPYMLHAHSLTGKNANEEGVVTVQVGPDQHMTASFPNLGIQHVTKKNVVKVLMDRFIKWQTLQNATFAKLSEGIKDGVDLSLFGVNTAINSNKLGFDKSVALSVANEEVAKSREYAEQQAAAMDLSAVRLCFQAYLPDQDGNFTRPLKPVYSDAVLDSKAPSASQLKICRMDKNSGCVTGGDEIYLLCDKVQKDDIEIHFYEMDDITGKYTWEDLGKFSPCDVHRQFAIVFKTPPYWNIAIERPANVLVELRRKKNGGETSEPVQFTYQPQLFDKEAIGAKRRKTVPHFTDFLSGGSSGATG
Nature of the assay: protein-binding microarray (PBM). To be noted: PBM: ~300 nM protein, 6 mM HEPES pH 7.8, 80 mM KCl, 0.5 mM EDTA, 0.5 mM EGTA, 6% glycerol, 35 ng/ul poly-dIdC, 1% milk, 1 h, room temperature; high values mean tight binding; double strand, one strand shown.

The target of another assay is T2, GST-Co-NF-kB (UniProt F1ARL5).
T2 sequence: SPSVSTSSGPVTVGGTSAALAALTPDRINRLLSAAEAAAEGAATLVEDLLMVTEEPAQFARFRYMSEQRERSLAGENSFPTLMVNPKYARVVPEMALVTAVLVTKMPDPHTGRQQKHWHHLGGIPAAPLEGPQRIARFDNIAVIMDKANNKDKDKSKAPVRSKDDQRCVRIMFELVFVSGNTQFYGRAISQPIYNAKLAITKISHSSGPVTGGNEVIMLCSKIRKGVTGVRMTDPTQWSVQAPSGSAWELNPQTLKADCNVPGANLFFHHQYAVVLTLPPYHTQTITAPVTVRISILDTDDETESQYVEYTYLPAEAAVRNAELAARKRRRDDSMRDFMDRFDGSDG
Put plainly: protein-binding microarray (PBM). To be noted: PBM: ~300 nM protein, 6 mM HEPES pH 7.8, 80 mM KCl, 0.5 mM EDTA, 0.5 mM EGTA, 6% glycerol, 35 ng/ul poly-dIdC, 1% milk, 1 h, room temperature; Ap Aiptasia and Nv Nematostella (sea anemones) / Co Capsaspora / Aq Amphimedon (sponge) / Dm Drosophila / Hu human; RHD is the Rel homology domain; high values mean tight binding; most listed sequences are background and not binding sites; double strand, one strand shown.

We go through 16 sequences from publication PMC5700166.

Only a part is listed here, and it is no random draw. The list includes weakly bound sequences.

With “CCGATTAACATCACCGTTTCCCCTGATGTTAATCGGGTCTTGATTCGCTTGACGCTGCTG”, the figures for the binding signal (in assay [1]; in the assay with GST-Co-NF-kB) were 6.66 z-score and 7.95 z-score, respectively.

For “CCGATTAACATCACTGGGAAAACTGATGTTAATCGGGTCTTGATTCGCTTGACGCTGCTG”, the binding signal in assay [1] turned out to be 2.36 z-score; with GST-Co-NF-kB, 5.25 z-score.

Turning to “CCGATTAACATCAGAAAATTACCTGATGTTAATCGGGTCTTGATTCGCTTGACGCTGCTG”, the binding signal in assay [1] was determined as 3.89 z-score; with GST-Co-NF-kB it was 0.323 z-score.

Regarding “CCGATTAACATCACGGGCTTTCCTGATGTTAATCGGGTCTTGATTCGCTTGACGCTGCTG”, the results for the binding signal (in assay [1]; with GST-Co-NF-kB) were 0.529 z-score and 0.365 z-score, respectively.

Turning to “CCGATTAACATCACGGGCACCCCTGATGTTAATCGGGTCTTGATTCGCTTGACGCTGCTG”, the binding signal in assay [1] was 0.527 z-score; with GST-Co-NF-kB, 1.34 z-score.

On to “CCGATTAACATCACGGGATTGCCTGATGTTAATCGGGTCTTGATTCGCTTGACGCTGCTG”, for which the binding signal in assay [1] is 0.472 z-score; with GST-Co-NF-kB, 0.862 z-score.

“CCGATTAACATCAGGAATGCCCATGATGTTAATCGGGTCTTGATTCGCTTGACGCTGCTG”: the binding signal in assay [1] was -0.129 z-score; with GST-Co-NF-kB, 0.0557 z-score.

In the case of “CCGATTAACATCAGATCTCCCCCTGATGTTAATCGGGTCTTGATTCGCTTGACGCTGCTG”, the binding signal in assay [1] amounted to 5.31 z-score; with GST-Co-NF-kB, 8.07 z-score.

Consider “CCGATTAACATCAAAATACCCCGTGATGTTAATCGGGTCTTGATTCGCTTGACGCTGCTG”, for which the binding signal came to 5.39 z-score in assay [1] and 5.77 z-score with GST-Co-NF-kB.

In the case of “CCGATTAACATCAAGTATTCCCCTGATGTTAATCGGGTCTTGATTCGCTTGACGCTGCTG”, the binding signal in assay [1] was determined as 9.28 z-score; with GST-Co-NF-kB it was 7.58 z-score.

On to “CCGATTAACATCAAAAAAGTACCTGATGTTAATCGGGTCTTGATTCGCTTGACGCTGCTG”, for which the binding signal was determined as 7.84 z-score in assay [1] and 0.587 z-score in the assay with GST-Co-NF-kB.

Consider “CCGATTAACATCAGAAAGTCCCATGATGTTAATCGGGTCTTGATTCGCTTGACGCTGCTG”, for which the binding signal turned out to be 7.09 z-score in assay [1] and 0.851 z-score with GST-Co-NF-kB.

Turning to “CCGATTAACATCAGGGGATGTTATGATGTTAATCGGGTCTTGATTCGCTTGACGCTGCTG”, the binding signal in assay [1] was 6.43 z-score; with GST-Co-NF-kB, 3.17 z-score.

Turning to “CCGATTAACATCAAGAGATTCCCTGATGTTAATCGGGTCTTGATTCGCTTGACGCTGCTG”, the binding signal in assay [1] is 3.88 z-score; in the assay with GST-Co-NF-kB it was 2.46 z-score.

With “CCGATTAACATCAAAAACTCCCATGATGTTAATCGGGTCTTGATTCGCTTGACGCTGCTG”, the values for the binding signal (in assay [1]; with GST-Co-NF-kB) were 5.15 z-score and 2.58 z-score, respectively.

For “CCGATTAACATCACCACCACCCCTGATGTTAATCGGGTCTTGATTCGCTTGACGCTGCTG”, the binding signal worked out at 0.972 z-score in assay [1] and 2.34 z-score in the assay with GST-Co-NF-kB.
